According to the supplement of paper PMC4604168 (melanoma cell lines):
The other results are listed elsewhere or left out. Many values rest on one well or one pass, so single values are uncertain.

Tests used:
Test in all cases: cell count relative to DMSO control; melanoma cells; higher = more viable cells
Settings in all cases: library dose: low library concentration; 72 h
[1] = tested on: MZ2-MEL
[2] = tested on: MeWo
[3] = tested on: RPMI7951
[4] = tested on: RVH-421
[5] = tested on: SkMel28
[6] = tested on: SkMel2
[7] = tested on: SkMel30
[8] = tested on: SkMel5
[9] = tested on: UACC257
[10] = tested on: UACC62
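Note: cell number obtained by counting DAPI-stained nuclei in high-throughput microscope images with image analysis software, screen run in 1,536-well plates.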

SMILES	cell count [1] [%]	cell count [2] [%]	cell count [3] [%]	cell count [4] [%]	cell count [5] [%]	cell count [6] [%]	cell count [7] [%]	cell count [8] [%]	cell count [9] [%]	cell count [10] [%]
CC[C@]1(O)C[C@H]2CN(CCc3c([nH]c4ccccc34)[C@@](C(=O)OC)(c3cc4c(cc3OC)N(C=O)[C@H]3[C@@](O)(C(=O)OC)[C@H](OC(C)=O)[C@]5(CC)C=CCN6CC[C@]43[C@@H]65)C2)C1 [vincristine] + OCCn1cc(-c2cnc3nnn(Cc4ccc5ncccc5c4)c3n2)cn1 [PF04217903] (first compound 0.0001 µM, partner dose 1 µM)	95.1	96.2	82.5	81.8	92.7	89.3	81.3	85.3	59	83.7
CC[C@]1(O)C[C@H]2CN(CCc3c([nH]c4ccccc34)[C@@](C(=O)OC)(c3cc4c(cc3OC)N(C=O)[C@H]3[C@@](O)(C(=O)OC)[C@H](OC(C)=O)[C@]5(CC)C=CCN6CC[C@]43[C@@H]65)C2)C1 [vincristine] + CC(C)CCN1c2nc(Nc3cc(F)c(O)c(F)c3)ncc2N(C)C(=O)C1C [BID1870] (first compound 0.0001 µM, partner dose 0.2 µM)	94.5	53.4	38.4	62.5	55.5	78.4	33.4	81.2	54.7	34.3
Cc1cc(Nc2cc(N3CCN(C)CC3)nc(Sc3ccc(NC(=O)C4CC4)cc3)n2)n[nH]1 [Tozasertib] + COc1ccc(-c2ccc3c(N4CCOCC4)nc(N4C[C@@H](C)O[C@@H](C)C4)nc3n2)cc1CO [KU0063794] (first compound 0.006 µM, partner dose 0.02 µM)	106	97.1	90.3	96.1	79.9	98.1	87.2	104	82.5	85.8
Cc1cc(Nc2cc(N3CCN(C)CC3)nc(Sc3ccc(NC(=O)C4CC4)cc3)n2)n[nH]1 [Tozasertib] + OCCn1cc(-c2cnc3nnn(Cc4ccc5ncccc5c4)c3n2)cn1 [PF04217903] (first compound 0.006 µM, partner dose 1 µM)	101	94	103	94.6	99.1	93.5	90.1	91.7	89	106
N#CC[C@H](C1CCCC1)n1cc(-c2ncnc3[nH]ccc23)cn1 [ruxolitinib] + CN(C)S(=O)(=O)c1ccc2c(c1)/C(=C/c1cc3c([nH]1)CCCC3)C(=O)N2 [SU6656] (first compound 1 µM, partner dose 0.4 µM)	106	85.4	129	76.4	120	108	107	91.7	88.6	103
Cc1cc(Nc2cc(N3CCN(C)CC3)nc(Sc3ccc(NC(=O)C4CC4)cc3)n2)n[nH]1 [Tozasertib] + COC(=O)c1sccc1S(=O)(=O)Nc1ccc(Nc2ccccc2)cc1OC [GSK0660] (first compound 0.006 µM, partner dose 1 µM)	89	90.5	101	74.2	78.6	103	93.2	99.8	72.9	79.3
Cc1cc(Nc2cc(N3CCN(C)CC3)nc(Sc3ccc(NC(=O)C4CC4)cc3)n2)n[nH]1 [Tozasertib] + O=C(CCCCCCC(=O)Nc1ccccc1)NO [vorinostat] (first compound 0.006 µM, partner dose 0.08 µM)	103	89.3	114	97.4	75.5	92.5	100	69	103	81
N#CC[C@H](C1CCCC1)n1cc(-c2ncnc3[nH]ccc23)cn1 [ruxolitinib] + O=C(Nc1cccc(Cl)c1)Nc1ncc(CCNc2ncnc3ccsc23)s1 [SNS314] (first compound 1 µM, partner dose 0.0008 µM)	107	83.9	94.1	92.9	117	102	117	107	82.5	112
N#CC[C@H](C1CCCC1)n1cc(-c2ncnc3[nH]ccc23)cn1 [ruxolitinib] + CO[C@@H]1[C@H](N(C)C(=O)c2ccccc2)C[C@H]2O[C@]1(C)n1c3ccccc3c3c4c(c5c6ccccc6n2c5c31)C(=O)NC4 [Midostaurin] (first compound 1 µM, partner dose 0.08 µM)	98.5	75	80.5	99.5	97.9	88.4	102	88.9	62.8	114
Cc1cc(Nc2cc(N3CCN(C)CC3)nc(Sc3ccc(NC(=O)C4CC4)cc3)n2)n[nH]1 [Tozasertib] + CCc1ccc(CCOc2ccc(CC3SC(=O)NC3=O)cc2)nc1 [pioglitazone] (first compound 0.006 µM, partner dose 2 µM)	95.4	90.3	90.5	112	78.9	95.9	92.3	110	78.8	98.4
Cc1cc(Nc2cc(N3CCN(C)CC3)nc(Sc3ccc(NC(=O)C4CC4)cc3)n2)n[nH]1 [Tozasertib] + O=C(O)C(=O)Nc1sc2c(c1C(=O)O)CCNC2 [TCS401] (first compound 0.006 µM, partner dose 1.66667 µM)	106	95	100	87.4	95.5	97.3	115	103	92.4	66.9
N#CC[C@H](C1CCCC1)n1cc(-c2ncnc3[nH]ccc23)cn1 [ruxolitinib] + CC(C)(C)c1cnc(CSc2cnc(NC(=O)C3CCNCC3)s2)o1 [SNS-032] (first compound 1 µM, partner dose 0.01 µM)	106	105	97.3	84.4	103	124	142	111	88.3	108
Cc1cc(Nc2cc(N3CCN(C)CC3)nc(Sc3ccc(NC(=O)C4CC4)cc3)n2)n[nH]1 [Tozasertib] + O=C(Nc1cccc(Cl)c1)Nc1ncc(CCNc2ncnc3ccsc23)s1 [SNS314] (first compound 0.006 µM, partner dose 0.0008 µM)	102	89.2	104	101	92.1	101	105	90.4	99.8	83.4
Cc1cc(Nc2cc(N3CCN(C)CC3)nc(Sc3ccc(NC(=O)C4CC4)cc3)n2)n[nH]1 [Tozasertib] + N#Cc1c(O)c2c(-c3ccc(-c4ccccc4O)cc3)csc2[nH]c1=O [A769662] (first compound 0.006 µM, partner dose 2 µM)	109	84.9	92.1	100	93.6	100	117	97.7	81	96.8
CC[C@]1(O)C[C@H]2CN(CCc3c([nH]c4ccccc34)[C@@](C(=O)OC)(c3cc4c(cc3OC)N(C=O)[C@H]3[C@@](O)(C(=O)OC)[C@H](OC(C)=O)[C@]5(CC)C=CCN6CC[C@]43[C@@H]65)C2)C1 [vincristine] + CN(NC(=O)CC(=O)NN(C)C(=S)c1ccccc1)C(=S)c1ccccc1 [STA4783] (first compound 0.0001 µM, partner dose 0.006 µM)	87.4	77.8	44.2	81.3	61.2	91.8	52.9	80.7	45.5	48
Cc1cc(Nc2cc(N3CCN(C)CC3)nc(Sc3ccc(NC(=O)C4CC4)cc3)n2)n[nH]1 [Tozasertib] + COc1cc2c(Oc3ccc4[nH]c(C)cc4c3F)ncnc2cc1OCCCN1CCCC1 [cediranib] (first compound 0.006 µM, partner dose 0.4 µM)	98.3	95.8	93.5	96.4	92.8	96.6	111	88.4	73.2	83.9
N#CC[C@H](C1CCCC1)n1cc(-c2ncnc3[nH]ccc23)cn1 [ruxolitinib] + O=C(O)C(=O)Nc1sc2c(c1C(=O)O)CCNC2 [TCS401] (first compound 1 µM, partner dose 1.66667 µM)	98.6	86.6	116	104	98.2	90.8	76.2	90.2	76.8	100
CC[C@]1(O)C[C@H]2CN(CCc3c([nH]c4ccccc34)[C@@](C(=O)OC)(c3cc4c(cc3OC)N(C=O)[C@H]3[C@@](O)(C(=O)OC)[C@H](OC(C)=O)[C@]5(CC)C=CCN6CC[C@]43[C@@H]65)C2)C1 [vincristine] + COc1ccc2c(c1)CCC1C2CCC2(C)C(NCCCCCCN3C(=O)C=CC3=O)CCC12 [U73122] (first compound 0.0001 µM, partner dose 0.4 µM)	113	98	82.3	93	110	100	108	112	75.5	97.5
CC[C@]1(O)C[C@H]2CN(CCc3c([nH]c4ccccc34)[C@@](C(=O)OC)(c3cc4c(cc3OC)N(C=O)[C@H]3[C@@](O)(C(=O)OC)[C@H](OC(C)=O)[C@]5(CC)C=CCN6CC[C@]43[C@@H]65)C2)C1 [vincristine] + COc1ccc(-c2ccc3c(N4CCOCC4)nc(N4C[C@@H](C)O[C@@H](C)C4)nc3n2)cc1CO [KU0063794] (first compound 0.0001 µM, partner dose 0.02 µM)	92.7	83.3	67.4	94.9	79.6	94.7	63.4	87.9	58.9	67.3
